According to PubChem BioAssay (NCI):
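Dose response: 5 concentrations. Exposure: 48 h. Format: 96-well plates. Endpoint: linear interpolation; highest concentration if not reached. Here, GI50 denotes the concentration required for 50% inhibition of growth.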 A number of entries come with more than one value. This list holds those alone. An entry can have further records. For part of these data: Records of one sample usually come from different ranges of test concentrations, not given here; a value can be the end of its range. For part of these data: Values that stand side by side are repeated measurements in other runs, samples, wells, individuals or studies. Records carry a tag for their origin. A, B and so on number the origins entry by entry.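 TGI marks complete inhibition of growth.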

What was measured:
Assay in all cases: NCI anticancer screen, dose series, 48 h
NCI-H522 lung = tested on: NCI-H522 lung
A498 renal = tested on: A498 renal
IGROV1 ovarian = tested on: IGROV1 ovarian
U251 CNS = tested on: U251 CNS
EKVX NSCLC = tested on: EKVX NSCLC
SNB-19 CNS = tested on: SNB-19 CNS
COLO 205 colon = tested on: COLO 205 colon
NCI-H226 lung = tested on: NCI-H226 lung
CCRF-CEM leukemia = tested on: CCRF-CEM leukemia
OVCAR-4 ovarian = tested on: OVCAR-4 ovarian

Structure (SMILES)	GI50 (NCI-H522 lung)	GI50 (A498 renal)	GI50 (IGROV1 ovarian)	TGI (NCI-H522 lung)	TGI (U251 CNS)	TGI (EKVX NSCLC)	TGI (SNB-19 CNS)	TGI (COLO 205 colon)	TGI (NCI-H226 lung)	GI50 (CCRF-CEM leukemia)	TGI (CCRF-CEM leukemia)	TGI (OVCAR-4 ovarian)
Cc1ccc(NS(=O)(=O)c2cccc(C#N)c2)c2[nH]cc(C#N)c12	132 nM [sample A, mean of 3 tests] and 13.4 µM [sample B, mean of 2 tests]	1.31 µM [sample A, mean of 3 tests] and 90.3 nM [sample B, mean of 2 tests]	37.9 nM [sample A, mean of 3 tests] and 634 nM [sample B, mean of 2 tests]	–	–	–	–	–	–	–	–	–
COC(=O)C12OCC34C(CC5C(C)C6=CC(=O)OC6=CC5(C)C3C(O)C1O)OC(=O)C(O)C24 (configuration not stated)	–	–	–	177 nM and 1.8 µM	607 nM and 11 µM	547 nM and 11.4 µM	755 nM and 9.8 µM	739 nM and > 19.6 µM	280 nM and 3.11 µM	35.8 nM [1 test] and 460 nM [mean of 2 tests]	540 nM [1 test] and 10.4 µM [mean of 2 tests]	594 nM and 9.61 µM
